The source gives no read counts; variants with many changes may rest on few reads.
B1: LINE1-full (parent)
chain: UACGUAGGUGGUUUUCCCCUGAUAGUGCUAAGGGGGCCUGGAAGUUUGGACUGGGCAGAGCUCAACACAGCGUGGCAAAGUGGCUGUGGCUAGACUGCCUCUCUGGAUUCCUCGUCACUCAGCAGGGCAUCUCUGAGAGAAAUGCC

Variants of: B1
Assay: self-cleavage, relative activity (ratio to wild type); higher = more cleavage; in vitro, sequencing; the parent is a self-cleaving ribozyme

Row | Variant | self-cleavage
1 | U14C U39C A77G U143C | 1.41
2 | U14C A65G U132C | 0.19
3 | U14C G32C A57U G137A | 0.26
4 | U14C U29C C76U U132C | 1.57
5 | U14C A121G U134C | 0.25
6 | U14C U15C G86A U104C | 0.15
7 | U14C U26A A121G | 0.74
8 | U14C C38U A43G C90U U96C U102C A142G | 0.11
9 | U14C U20C U132A | 1.84
10 | U14C G27C A67U A140G | 0.13
11 | U14C G33U U143A | 0.78
12 | U14C G82A U91C U102C U109C | 0.67
13 | U14C G53U U143C | 1.47
14 | U14C G53A A57G U85C | 0.13
15 | U14C G48C U130C A138U | 2
16 | U14C A69U A78G U108C | 0
17 | U14C A79G U132A U134C | 2.36
18 | U14C C28G U47A U62C A67G A77G A138G | 0.88
19 | U14C U26C A31C C84U A121U A124U A136G | 0
20 | U14C U26A U96A | 0.05
21 | U14C A65U A138G | 0.24

Row | Variant | self-cleavage
22 | U14C U39A A57G A67U A129U | 0.18
23 | U14C U20C C71A A124G | 0.13
24 | U14C U15C U45C | 0.17
25 | U14C A67U U104A A107U | 0.14
26 | U14C G80A A117G | 1.91
27 | U14C U45A U81A A117U A136G | 1.64
28 | U14C G34U A79G U109C U115C | 0
29 | U14C A59G A124G U143A | 0.31
30 | U14C U29C U62C U73A | 0.32
31 | U14C A94G U134A A141G | 0.41
32 | U14C U39G U115C | 0
33 | U14C U29A U91A | 0.27
34 | U14C C19U U39A A142G | 1.06
35 | U14C A59G A107U | 0.29
36 | U14C A78G U134C | 1.24
37 | U14C A78G U134A | 0.88
38 | U14C A67G U104A | 0.12
39 | U14C U45A A67U U132C | 0.24
40 | U14C G25U U45C G88A U132C | 0.17
41 | U14C A59G A124U | 0.18
42 | U14C A59G A107G C116U | 0

Row | Variant | self-cleavage
43 | U14C G48A U102A U112C | 1.47
44 | U14C G35A U47A A79G | 0.66
45 | U14C A77G A124G | 0.84
46 | U14C G40C U81A | 2
47 | U14C U20C U52A U109C G139A | 2.76
48 | U14C U20C A59G | 0.26
49 | U14C A107G A121G U130C | 0
50 | U14C A79G U134A | 0.84
51 | U14C U26A U100G U143C | 2.45
52 | U14C G49A A79G U85C A94G U119C | 0.92
53 | U14C U20C A30U G75C | 0
54 | U14C A69G U100C | 0
55 | U14C U39C A50U A94G A140U | 0.2
56 | U14C G44A A136G A140G | 0.84
57 | U14C A79G U108C U119A | 2.04
58 | U14C U26C G41U | 1.28
59 | U14C U45A U104C | 1.01
60 | U14C A65G A77G C120U | 0.24
61 | U14C C84U U132C | 0.15
62 | U14C U26A U47C U109C | 0.96
63 | U14C U39C A65G A142G | 0

Row | Variant | self-cleavage
64 | U14C G74A A117U | 0.68
65 | U14C G53A U81C A92U U130C A141G U143C | 1.48
66 | U14C A64G G88A U104A A142G | 0.09
67 | U14C A64U U100A | 0.35
68 | U14C U26C U132C | 1.1
69 | U14C A59G U132C | 0.22
70 | U14C A78G U87A A141G | 0.16
71 | U14C U26C A42G G125A | 1.23
72 | U14C A79G G114A C145A | 0.89
73 | U14C G34U A124U | 1.35
74 | U14C U20C U26C A78G | 0.24
75 | U14C U26C G127U | 1.26
76 | U14C U29C A50G A138U | 0.48
77 | U14C A65G U100C | 0
78 | U14C G44U U47A | 0.68
79 | U14C U23G A24G | 0
80 | U14C C19A C51U A94U | 0.35
81 | U14C G41A U46C | 1.25
82 | U14C U39C U81A A117C A138G | 2.92
83 | U14C G36C A78G A140G | 1.19
84 | U14C U20A U47A A142G C145A | 0.67

— the RNAGym collection of RNA variant scans (doi:10.7554/elife.90254)
